Results on four molecules are retold here after patent US20260184783A1 (Merck Sharp & Dohme, published 2026).

Read-outs that look alike come from different tables or passages of the source.

Common to all, as to assay: cell-based or functional assay
Assay [1] deals with T1, extracellular domain of PD-1 (1-199) fused to the PK subunit (human, UniProt Q15116 fragment).
In assay [2] the target is T2, extracellular domain of LAG-3 (1-477) fused to the EA subunit (human, UniProt P18627 23-477).
T2 sequence (looked up): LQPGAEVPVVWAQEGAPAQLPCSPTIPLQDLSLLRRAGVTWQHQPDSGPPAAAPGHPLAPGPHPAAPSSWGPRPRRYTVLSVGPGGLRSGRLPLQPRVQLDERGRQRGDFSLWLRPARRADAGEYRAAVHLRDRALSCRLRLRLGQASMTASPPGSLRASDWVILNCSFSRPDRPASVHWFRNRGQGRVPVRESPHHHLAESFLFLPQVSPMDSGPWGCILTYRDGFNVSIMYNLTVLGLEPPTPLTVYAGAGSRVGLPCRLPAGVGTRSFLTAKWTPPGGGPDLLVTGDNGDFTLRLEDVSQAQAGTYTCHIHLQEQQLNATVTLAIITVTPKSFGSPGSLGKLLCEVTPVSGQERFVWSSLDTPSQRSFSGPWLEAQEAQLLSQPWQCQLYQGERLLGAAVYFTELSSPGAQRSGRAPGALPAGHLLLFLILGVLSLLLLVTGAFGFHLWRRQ

Assay [3] has as its target T3, human PD-1 expressed on cells (human, UniProt Q15116 25-288).
Assay [4] concerns the target T3, human PD-1 expressed on cells. The source holds these as a separate data set.
Assay [5] addresses T4, human LAG-3 expressed on cells (human, UniProt P18627 23-525).
T4 sequence: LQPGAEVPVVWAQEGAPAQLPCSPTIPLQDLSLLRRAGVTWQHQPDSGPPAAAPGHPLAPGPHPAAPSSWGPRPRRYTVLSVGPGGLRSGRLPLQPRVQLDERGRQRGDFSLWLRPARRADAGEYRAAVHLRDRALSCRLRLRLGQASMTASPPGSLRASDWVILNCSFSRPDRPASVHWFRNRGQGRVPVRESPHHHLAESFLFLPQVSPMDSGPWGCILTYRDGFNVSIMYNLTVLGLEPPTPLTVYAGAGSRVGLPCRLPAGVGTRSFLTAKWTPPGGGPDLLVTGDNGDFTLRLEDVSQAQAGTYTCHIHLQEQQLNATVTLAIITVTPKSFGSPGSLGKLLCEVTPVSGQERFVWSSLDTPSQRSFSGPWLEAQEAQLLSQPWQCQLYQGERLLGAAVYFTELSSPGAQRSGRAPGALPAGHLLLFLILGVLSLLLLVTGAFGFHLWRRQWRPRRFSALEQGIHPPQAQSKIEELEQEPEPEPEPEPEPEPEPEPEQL

For assay [6], the target named is T1, extracellular domain of PD-1 (1-199) …. The source holds these as a separate data set.
Assay [7] has as its target T2, extracellular domain of LAG-3 (1-477) …. This is another data set of the same source.
In assay [8] the target is T4, human LAG-3 expressed on cells. The source holds these as a separate data set.

T3 sequence (Q15116 25-288 limits assumed): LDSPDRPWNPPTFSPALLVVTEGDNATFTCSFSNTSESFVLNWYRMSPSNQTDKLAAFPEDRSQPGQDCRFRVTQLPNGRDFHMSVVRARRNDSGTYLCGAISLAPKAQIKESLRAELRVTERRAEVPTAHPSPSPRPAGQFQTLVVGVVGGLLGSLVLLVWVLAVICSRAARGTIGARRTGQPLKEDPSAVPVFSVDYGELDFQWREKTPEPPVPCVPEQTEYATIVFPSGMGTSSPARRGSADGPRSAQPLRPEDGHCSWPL

B1: F023700969 (102C12 (E1D, L11V, A14P, A74S, K83R, I89L)-20GS-F0237611B09 (L11V, A14P, R41P, N43K, A62S, A74S, K83R, V89L)-20GS-ALB11002-A) (bispecific antibody)
chain: DVQLVESGGGVVQPGGSLRLSCAASGSIASIHAMGWFRQAPGKEREFVAVITWSGGITYYADSVKGRFTISRDNSKNTVYLQMNSLRPEDTALYYCAGDKHQSSWYDYWGQGTLVTVSSGGGGSGGGGSGGGGSGGGGSEVQLVESGGGVVQPGGSLRLSCAASGRTFSDYVMGWFRQAPGKEREFVAAISESGGRTHYADSVKGRFTISRDNSKNTLYLQMNSLRPEDTALYYCATTLLWWTSEYAPIKANDYDYWGQGTLVTVSSGGGGSGGGGSGGGGSGGGGS[about 120 residues not spelt out]
In the case of B1, the “EC50 (read off the curve), proximity assay RLU” value (from here on “EC50 … proximity assay RLU”) in assay [1] and in assay [2] was ~0.3 nM throughout. Also, the “EC50 (read off the curve), IL-2 promoter luciferase RLU” value in assay [3] was ~1 nM. The “EC50 (read off the curve), IL-2 pg/ml” value in assay [4] and in assay [5] was ~1 nM throughout.

B2: F023700970 (102C12 (E1D, L11V, A14P, A74S, K83R, I89L)-9GS-F0237611B09 (L11V, A14P, R41P, N43K, A62S, A74S, K83R, V89L)-9GS-ALB11002-A) (bispecific antibody)
chain: DVQLVESGGGVVQPGGSLRLSCAASGSIASIHAMGWFRQAPGKEREFVAVITWSGGITYYADSVKGRFTISRDNSKNTVYLQMNSLRPEDTALYYCAGDKHQSSWYDYWGQGTLVTVSSGGGGSGGGSEVQLVESGGGVVQPGGSLRLSCAASGRTFSDYVMGWFRQAPGKEREFVAAISESGGRTHYADSVKGRFTISRDNSKNTLYLQMNSLRPEDTALYYCATTLLWWTSEYAPIKANDYDYWGQGTLVTVSSGGGGSGGGS[about 120 residues not spelt out]
In the case of B2, the “EC50 … proximity assay RLU” value in assay [1] and in assay [2] was ~0.1 nM each time. The “EC50 (read off the curve), IL-2 promoter luciferase RLU” value in assay [3] was ~1 nM. Also, the “EC50 (read off the curve), IL-2 pg/ml” value in assay [4] and in assay [5] was ~1 nM each time.

B3: F023701017 (102C12 (E1D, L11V, A14P, A74S, K83R, I89L)-9GS-102C12 (L11V, A14P, A74S, K83R, I89L)-9GS-F0237611B09 (L11V, A14P, R41P, N43K, A62S, A74S, K83R, … (bispecific antibody)
chain: DVQLVESGGGVVQPGGSLRLSCAASGSIASIHAMGWFRQAPGKEREFVAVITWSGGITYYADSVKGRFTISRDNSKNTVYLQMNSLRPEDTALYYCAGDKHQSSWYDYWGQGTLVTVSSGGGGSGGGSEVQLVESGGGVVQPGGSLRLSCAASGSIASIHAMGWFRQAPGKEREFVAVITWSGGITYYADSVKGRFTISRDNSKNTVYLQMNSLRPEDTALYYCAGDKHQSSWYDYWGQGTLVTVSSGGGGSGGGSEVQLVESGGGVVQPGGSLRLSCAASGRTFSDYVMGWFRQAPGKEREFVAAISESGGRTHYADSVKGRFTISRDNSKNTLYLQMNSLRPEDTALYYCATTLLWWTSEYAPIKANDYDYWGQGTLVTVSSGGGGSGGGSEVQLVESGGGVVQPGGSLRLSCAASGRTFSDYVMGWFRQAPGKEREFVAAISESGGRTHYADSVKGRFTISRDNSKNTLYLQMNSLRPEDTALYYCATTLLWWTSEYAPIKANDYDYWGQGTLVTVSSGGGGSGGGS[about 120 residues not spelt out]
In the case of B3, the “EC50 … proximity assay RLU” value in assay [6] and in assay [7] was ~0.1 nM throughout. In assay [8], the “EC50 (read off the curve), IL-2 MSD-signal” value was ~4 nM. The “EC50 (read off the curve), IL-2 pg/ml” value in assay [4] and in assay [5] was ~0.6 nM in each case.

B4: F023701016 (102C12 (E1D, L11V, A14P, A74S, K83R, I89L)-20GS-102C12 (L11V, A14P, A74S, K83R, I89L)-20GS-F0237611B09 (L11V, A14P, R41P, N43K, A62S, A74S, K83R, … (bispecific antibody)
chain: DVQLVESGGGVVQPGGSLRLSCAASGSIASIHAMGWFRQAPGKEREFVAVITWSGGITYYADSVKGRFTISRDNSKNTVYLQMNSLRPEDTALYYCAGDKHQSSWYDYWGQGTLVTVSSGGGGSGGGGSGGGGSGGGGSEVQLVESGGGVVQPGGSLRLSCAASGSIASIHAMGWFRQAPGKEREFVAVITWSGGITYYADSVKGRFTISRDNSKNTVYLQMNSLRPEDTALYYCAGDKHQSSWYDYWGQGTLVTVSSGGGGSGGGGSGGGGSGGGGSEVQLVESGGGVVQPGGSLRLSCAASGRTFSDYVMGWFRQAPGKEREFVAAISESGGRTHYADSVKGRFTISRDNSKNTLYLQMNSLRPEDTALYYCATTLLWWTSEYAPIKANDYDYWGQGTLVTVSSGGGGSGGGGSGGGGSGGGGSEVQLVESGGGVVQPGGSLRLSCAASGRTFSDYVMGWFRQAPGKEREFVAAISESGGRTHYADSVKGRFTISRDNSKNTLYLQMNSLRPEDTALYYCATTLLWWTSEYAPIKANDYDYWGQGTLVTVSSGGGGSGGGGSGGGGSGGGGS[about 120 residues not spelt out]
Regarding B4, the “EC50 … proximity assay RLU” value in assay [6] and in assay [7] was ~0.2 nM throughout. Besides, the “EC50 (read off the curve), IL-2 MSD-signal” value in assay [8] was ~4 nM. For the same molecule, the “EC50 (read off the curve), IL-2 pg/ml” value in assay [4] and in assay [5] was ~0.7 nM each time.
